In article PMC12528901:
Results are given in words; binding and its absence hold for the method and conditions named. Binding seen in cells or lysates may run through a third protein. Some entries that bind do so weakly or less than the wild type. Where a sequence is shown, tags or fusion partners need not be part of it.

Chains of the proteins cited; added tags and fusions are not shown.
UniProt Q7Z5G4: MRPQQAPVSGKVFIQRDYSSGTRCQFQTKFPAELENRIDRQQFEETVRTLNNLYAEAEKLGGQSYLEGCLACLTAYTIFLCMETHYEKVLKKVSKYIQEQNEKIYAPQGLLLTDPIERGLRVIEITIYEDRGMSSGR

Assays:
Assay in all cases: co-IP; HA-tagged mouse Zdhhc proteins transfected into 293T ZDHHC5 KO and control cells; lysis in 50 mM Tris-HCl pH 7.4, 150 mM NaCl, 2 mM EDTA, 1% DDM; anti-HA magnetic beads overnight at 4 °C; washes in TBS with 0.5% DDM; blots for endogenous GOLGA7 or ZDHHC9
[1] = biological target: T1, HA-tagged mouse Zdhhc4 (mouse) (UniProt Q9D6H5)
T1 sequence: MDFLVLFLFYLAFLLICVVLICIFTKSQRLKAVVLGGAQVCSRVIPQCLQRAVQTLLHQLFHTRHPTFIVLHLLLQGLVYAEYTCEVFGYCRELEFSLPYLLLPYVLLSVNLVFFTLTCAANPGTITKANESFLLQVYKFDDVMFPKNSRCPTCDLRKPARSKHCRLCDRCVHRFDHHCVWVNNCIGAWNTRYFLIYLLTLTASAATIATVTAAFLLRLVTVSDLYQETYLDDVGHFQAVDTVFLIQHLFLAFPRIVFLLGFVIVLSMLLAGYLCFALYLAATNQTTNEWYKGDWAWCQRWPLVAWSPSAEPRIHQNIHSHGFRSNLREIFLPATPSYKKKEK

[2] = biological target: T2, HA-tagged mouse Zdhhc11 (mouse) (UniProt Q14AK4)
T2 sequence: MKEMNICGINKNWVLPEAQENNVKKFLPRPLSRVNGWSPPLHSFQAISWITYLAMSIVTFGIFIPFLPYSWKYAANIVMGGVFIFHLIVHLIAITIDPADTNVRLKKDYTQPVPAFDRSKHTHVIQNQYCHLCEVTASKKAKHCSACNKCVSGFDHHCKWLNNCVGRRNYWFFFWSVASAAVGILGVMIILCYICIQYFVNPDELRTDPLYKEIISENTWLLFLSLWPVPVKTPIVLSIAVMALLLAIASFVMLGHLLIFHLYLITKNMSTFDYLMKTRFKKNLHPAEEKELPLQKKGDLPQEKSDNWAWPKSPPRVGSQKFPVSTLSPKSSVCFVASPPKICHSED

[3] = biological target: T3, HA-tagged mouse Zdhhc24 (mouse) (UniProt Q6IR37)
T3 sequence: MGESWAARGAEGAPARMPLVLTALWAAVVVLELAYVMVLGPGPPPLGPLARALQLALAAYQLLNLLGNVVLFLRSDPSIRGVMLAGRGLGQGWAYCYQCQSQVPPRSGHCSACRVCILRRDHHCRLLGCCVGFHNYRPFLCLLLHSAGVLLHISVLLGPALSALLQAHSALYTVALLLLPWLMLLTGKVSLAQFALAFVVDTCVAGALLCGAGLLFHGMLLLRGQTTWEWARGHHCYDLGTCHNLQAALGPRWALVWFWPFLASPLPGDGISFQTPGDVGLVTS

[4] = biological target: T4, HA-tagged mouse Zdhhc18 (mouse) (UniProt Q5Y5T2)
T4 sequence: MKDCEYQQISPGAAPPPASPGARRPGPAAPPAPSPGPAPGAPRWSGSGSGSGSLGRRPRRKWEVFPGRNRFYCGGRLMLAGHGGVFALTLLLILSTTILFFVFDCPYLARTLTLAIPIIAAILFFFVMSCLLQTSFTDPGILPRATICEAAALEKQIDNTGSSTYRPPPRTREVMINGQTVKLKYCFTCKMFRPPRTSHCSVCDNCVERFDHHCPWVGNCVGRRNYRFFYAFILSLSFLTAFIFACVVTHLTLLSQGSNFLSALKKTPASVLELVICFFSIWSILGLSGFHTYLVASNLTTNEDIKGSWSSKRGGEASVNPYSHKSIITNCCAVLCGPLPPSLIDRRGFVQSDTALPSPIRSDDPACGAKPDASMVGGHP

[5] = biological target: T5, HA-tagged mouse Zdhhc23 (mouse) (UniProt Q5Y5T3)
T5 sequence: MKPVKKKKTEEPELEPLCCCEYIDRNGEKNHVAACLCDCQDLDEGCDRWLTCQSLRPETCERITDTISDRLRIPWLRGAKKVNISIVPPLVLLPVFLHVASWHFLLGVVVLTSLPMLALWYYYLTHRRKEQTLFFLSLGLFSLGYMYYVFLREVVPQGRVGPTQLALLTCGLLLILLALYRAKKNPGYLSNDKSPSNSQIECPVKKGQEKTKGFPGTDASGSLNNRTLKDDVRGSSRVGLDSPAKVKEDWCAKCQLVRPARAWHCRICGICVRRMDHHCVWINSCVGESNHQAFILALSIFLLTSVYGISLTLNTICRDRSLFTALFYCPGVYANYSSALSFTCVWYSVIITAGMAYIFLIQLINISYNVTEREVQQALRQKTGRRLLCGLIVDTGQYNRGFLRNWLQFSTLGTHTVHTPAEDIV

- binding [1]: no binding
- binding [2]: no binding
- binding [3]: no binding
- binding [4]: binds
- binding [5]: no binding
Substance: endogenous human golgin A7 (GOLGA7) (from UniProt Q7Z5G4 1-137)
